Test results: the supplement of paper PMC9446081
In all, about 39,000 compounds went through this assay and about 220 (0.56%) showed activity. The list shows a part of the results.

Each compound was assayed on Escherichia coli K-12 BW25113 (assay: relative growth (OD600 normalised to plate interquartile mean) (fraction); higher = less growth inhibition, active = 0.2 or less). Conditions: 50 µM; LB; incubation time: overnight (16-24 h).
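Further: static incubation at 37 °C against the wild-type strain, values averaged over two biological replicates.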

Compound	relative growth
C[C@@H]1CN([C@@H](C)CO)C(=O)Cc2cc(NC(=O)CCN3CCOCC3)ccc2O[C@@H]1CN(C)CC1CC1	inactive: 0.995
C[C@H](O)C#Cc1ccc2c(c1)O[C@@H](CN(C)C)[C@H](C)CN([C@H](C)CO)S2(=O)=O	inactive: 1.03
Cc1ccc(S(=O)(=O)N(C)C[C@H]2Oc3cc(C#Cc4ccccc4)ccc3S(=O)(=O)N([C@H](C)CO)C[C@@H]2C)cc1	inactive: 1.02
CCn1cc(C(=O)O)c(=O)c2cnc(N3CCNCC3)nc21	active: 0.05
C[C@@H]1CN([C@@H](C)CO)C(=O)c2cc(NC(=O)Cc3ccccc3)ccc2O[C@@H]1CN(C)S(=O)(=O)c1cccs1	inactive: 1.02
CCOC(=O)CNc1nnc(N)[nH]1	inactive: 1.01
C=C[C@@H]1C[C@]1(NC(=O)[C@@H]1C[C@@H]2CN1C(=O)[C@H](C(C)(C)C)NC(=O)O[C@@H]1C[C@H]1CCCCCc1nc3ccc(OC)cc3nc1O2)C(=O)NS(=O)(=O)C1CC1	inactive: 0.967
COc1ccc(/C=C/CN(C/C=C/c2ccc(OC)cc2)CCCCNS(=O)(=O)c2cccc3cnccc23)cc1	inactive: 0.99
C[C@@H]1CN([C@@H](C)CO)C(=O)c2cccc(NC(=O)c3nc4ccccc4s3)c2O[C@H]1CN(C)Cc1ccc(-c2ccccc2)cc1	inactive: 1.02
C[C@@H]1CN([C@@H](C)CO)C(=O)c2cccc(NC(=O)Nc3ccc(F)cc3)c2O[C@@H]1CN(C)S(C)(=O)=O	inactive: 0.822
CCc1ccccc1C(=O)N1CCC[C@@H](Cn2cc(C(C)(C)N)nn2)C1	inactive: 1.01
C[C@@H]1CN([C@@H](C)CO)C(=O)c2cc(NC(=O)C3CC3)ccc2O[C@H]1CN(C)S(=O)(=O)c1cccs1	inactive: 1.01
CC(C)=CCC/C(C)=C/CC1=C(C)C(=O)c2ccccc2C1=O	inactive: 0.911
NCCS(=O)(=O)O	inactive: 1.1
Cc1ccc(S(=O)(=O)Nc2cccc3c2O[C@@H](CN(C)S(=O)(=O)c2cccs2)[C@H](C)CN([C@H](C)CO)C3=O)cc1	inactive: 0.999
O=C1NC(=O)[C@H]2CC[C@H]2N1	inactive: 0.965
CN(C)CCCNC(=O)C[C@H]1CC[C@@H]2[C@@H](COc3ccc(NC(=O)c4ccc5c(c4)OCO5)cc3C(=O)N2C)O1	inactive: 0.933
COc1ccccc1NC(=O)N(C)C[C@@H]1Oc2ncc(C#CCN(C)C)cc2C(=O)N([C@@H](C)CO)C[C@H]1C	inactive: 0.991
CCCNC(=O)Nc1ccc2c(c1)C(=O)N(C)C[C@@H](OC)[C@@H](C)CN(Cc1ccc(-c3ccccn3)cc1)[C@H](C)CO2	inactive: 0.98
CCOC(=O)[C@H]1C/C=C/C[C@H](C(=O)OCC)C(=O)O[C@H]2[C@@H](OC)O[C@H](CO)[C@@H](OC(=O)Nc3ccccc3)[C@@H]2OC1=O	inactive: 1.01
C[C@H]1CCCCO[C@@H](CN(C)C(=O)c2ccncc2)[C@@H](C)CN([C@@H](C)CO)C(=O)c2cc(NC(=O)NC3CCCCC3)ccc2O1	inactive: 0.997

Compound	relative growth
C[C@@H]1CCCCO[C@@H](CN(C)C(=O)Nc2ccc(F)cc2)[C@@H](C)CN([C@H](C)CO)C(=O)c2cc(NC(=O)CCC(F)(F)F)ccc2O1	inactive: 1.03
Cc1noc(C)c1S(=O)(=O)Nc1ccc2c(c1)C(=O)N([C@@H](C)CO)C[C@@H](C)[C@@H](CN(C)S(=O)(=O)c1cccs1)O2	inactive: 1.01
Nc1cccc2c(=O)[nH][nH]c(=O)c12	inactive: 1.01
O=C(NCCN1CCOCC1)c1ccc(Cl)c(S(=O)(=O)N2CCOCC2)c1	inactive: 1.01
Cc1noc(C)c1S(=O)(=O)Nc1ccc2c(c1)C(=O)N([C@@H](C)CO)C[C@H](C)[C@H](CN(C)Cc1ccc(Cl)c(Cl)c1)OCCCC[C@@H](C)O2	inactive: 0.976
COC(=O)CNc1nc(OC)nc(N(C)C)n1	inactive: 0.909
C[C@H]1CN([C@@H](C)CO)C(=O)CCCn2cc(nn2)CO[C@H]1CN(C)Cc1ccc2c(c1)OCCN2C	inactive: 0.982
Cn1cnc(S(=O)(=O)N[C@H]2CC[C@H](CC(=O)Nc3ccccc3)O[C@@H]2CO)c1	inactive: 1
C[C@H]1CN([C@@H](C)CO)C(=O)c2cccc(NC(=O)Nc3ccc(C(F)(F)F)cc3)c2O[C@@H]1CN(C)S(=O)(=O)c1ccc(Cl)cc1	inactive: 0.786
COC(=O)[C@@H](NC(=O)Cn1cc(CCC(=O)NO)nn1)c1ccccc1	inactive: 0.982
C[C@H](CO)N1C[C@H](C)[C@H](CN(C)Cc2ccccc2)Oc2c(NC(=O)c3ccc(-c4nccs4)cc3)cccc2C1=O	inactive: 1.03
Oc1c(I)cc(I)c2cccnc12	inactive: 1.04
C[C@@H]1CCCCO[C@@H](CN(C)Cc2ccc(C(F)(F)F)cc2)[C@H](C)CN([C@@H](C)CO)C(=O)c2cc(NS(=O)(=O)c3ccccc3)ccc2O1	inactive: 1.01
CC(C)N(C)C(=O)c1cccc(NC(=O)c2ccncc2)c1OCCCN(C)Cc1ccc(Oc2ccccc2)cc1	inactive: 1.04
COCC(=O)N(C)C[C@H]1Oc2cc(-c3ccc(C#N)cc3)ccc2S(=O)(=O)N([C@@H](C)CO)C[C@@H]1C	inactive: 1.01
CCOC(=O)c1nonc1N	inactive: 1.01
O=C(Nc1cccc([N+](=O)[O-])c1)C(=O)NC1CC1	inactive: 1.04
COc1ccc(NC(=O)Nc2ccc3c(c2)C(=O)N([C@@H](C)CO)C[C@@H](C)[C@@H](CN(C)C(=O)CCC(F)(F)F)OCCCC[C@@H](C)O3)cc1	inactive: 0.961
O=C(C[C@H]1CC[C@@H](NC(=O)CN2CCOCC2)[C@H](CO)O1)NC1CCC1	inactive: 0.967
C=CCC[C@H](Cc1ccc(F)cc1)C(=O)OC[C@H]1CCCN1C(=O)[C@H](CC=C)CC(=O)N(CCO)Cc1ccccc1	inactive: 1.07
COc1ccc(NC(=O)N(C)C[C@H]2OCCCC[C@@H](C)Oc3ccc(NS(=O)(=O)c4ccc(OC)cc4)cc3C(=O)N([C@@H](C)CO)C[C@@H]2C)cc1	inactive: 1.02
